Data on 88 compounds can be found in ChEMBL document CHEMBL1157539, “Thousands of chemical starting points for antimalarial lead identification” (Nature, 2010).

Over roughly 13,000 compounds, “IFI” has its median near 4; the highest 2% begin near 17. Some of the results follow.

This experiment can be described thus: GSK_TCMDC: Inhibition Frequency Index (IFI). The number of non-kinase HTS assays where a compound showed > 50 % inhibition, expressed as a percentage of the number of such assays in which the compound was tested (-0 is zero). Type of experiment: functional.
Take `Cc1cccc2nc(-c3ccc(-c4ccc(NC(=O)Nc5ccc(F)c(F)c5F)cc4)cc3)[nH]c12`: the IFI was 2.94%.
Regarding `Cc1cc2c(cc1C(F)(F)F)N(C(=O)Nc1ccc(C(=O)NC3CCN(Cc4ccccc4)C3)cc1)CC2` (stereo not drawn), the IFI worked out at 5.22%.
Compound `Cc1cc2ncn(-c3nccc(NCc4ccc(F)c(C)c4)n3)c2cc1C` registered an IFI of 1.56%.
The value for `Cc1nc(NCCc2c[nH]cn2)cc(NCc2ccccc2)n1` was -0%; that for `Cc1cccc2nc(-c3cccc(-c4cccc(CNCCc5ccncc5)c4)c3)[nH]c12` was 6.06%.
In the case of `CC(C)CCCC(C)(C)NC[C@@H](O)[C@H](Cc1ccccc1)NC(=O)c1cc(NC(C)C)cc(N2CCCCS2(=O)=O)c1F`, the IFI came to 5.93%.
The value for `Cc1cccc(-c2ccc(NC(=O)C3CCN(Cc4cccc(O)c4)CC3)cc2)c1` was 15.9%; that for `CN(C)c1ccc(CN2CCC(CNC(=O)c3cc(-c4ccccc4F)cs3)C2)cc1` (stereo not drawn) was 6.12%; that for `COc1ccc2nc(SC(C)C(=O)c3c[nH]c4ccccc34)[nH]c2c1` (stereo not drawn) was 6%.
The value for `CC1CCc2sc(-c3nnc(SC(C)C(=O)NC4CC4)o3)cc2C1` (stereo not drawn) was 0%.
`Cc1cccc2nc(-c3cccc(-c4cccc(NC(=O)NC5CC5c5ccccc5)c4)c3)[nH]c12` (stereo not drawn): the IFI was found to be 2.06%.
`CCCCNS(=O)(=O)c1ccc(NC(=O)c2cc([N+](=O)[O-])ccc2Cl)cc1` registered an IFI of 5.17%.
Compound `Cc1cccc2nc(-c3cccc(-c4cccc(NC(=O)c5ccc(=O)[nH]n5)c4)c3)[nH]c12` showed an IFI of 1.79%.
The value for `COCCn1ccc2c3c(N)nc(N)nc3ccc21` was 4.2%; that for `CC(C)(C)CNc1noc(-c2sccc2Br)n1` was 7.58%; that for `CCCCc1ccc(S(=O)(=O)Nc2ccc3c(c2)CCN(Cc2c[nH]c4cnccc24)CC3)cc1` was 19.4%.
`Cc1ccc(F)cc1S(=O)(=O)N1CCCCC(c2ccc(C(F)(F)F)cc2)=N1`: the IFI came out at 1.46%.
The value for `O=C(Nc1cccc(-c2ccc(-c3nc4ccccc4[nH]3)cc2)c1)c1cccnc1` was 3.7%; that for `Cc1[nH]c(-c2ccc(F)cc2)cc1C(=O)NC1CCN(Cc2ccccc2)CC1` was 0.93%.
`Cc1nc(O)c2c(ccc3ccc(CNc4ccc(C(=O)N[C@@H](CCC(=O)O)C(=O)O)cc4)cc32)n1`: the IFI is 1.44%.
In turn, `CNC(=O)Cc1ccc(C(=O)Nc2cccc(-c3csc(-c4nc5ccccc5[nH]4)c3)c2)cc1` showed an IFI of 2.83%.
Compound `Cc1nn(-c2ccccc2)c2nc(-c3ccccc3)cc(C(=O)N3CCOCC3)c12` gave an IFI of 3.31%.
The value for `O=S(=O)(NC1CCN(c2ccnc3cc(Cl)ccc23)C1)c1cccc(F)c1` (stereo not drawn) was 1.54%; that for `Cc1cc(NCCC(=O)Nc2ccccc2)nc(NCCc2cccs2)n1` was 4.88%; that for `CN(CCN)Cc1cccc(-c2cccc(-c3nc4cc(C(F)(F)F)ccc4[nH]3)c2)c1` was 3.96%.
Compound `Cc1cccc2nc(-c3ccc(-c4cccc(CN5CCC(C(N)=O)CC5)c4)s3)[nH]c12` yielded an IFI of 3.77%.
The compound `O=C(/C=C/c1ccc(Cl)c(Cl)c1)NCCCCCN1CCN(C(=O)Nc2ccc(Cl)c(C(F)(F)F)c2)CC1` had an IFI of 4.67%.
The value for `Cc1nnsc1C(=O)Nc1cccc(-c2ccc(-c3nc4cccc(C)c4[nH]3)s2)c1` was 6.31%; that for `COc1cc(OC)c(NC(=O)C2c3ccccc3C(=O)N(C)C2c2cccs2)cc1Cl` (stereo not drawn) was 0%.
In the case of `CC(C)Nc1cc(C(=O)N[C@@H](Cc2ccccc2)[C@H](O)CNC(C)(C)c2cccc(C(F)(F)F)c2)cc(N2CCCCS2(=O)=O)c1`, the IFI amounted to 6.99%.
Take `Cc1cc(N(C)CCN(C)C)nc(Nc2ccc(Br)cc2)n1`: the IFI is -0%.
The value for `Cc1c(-c2ccc3c(c2)C(NCCCN2CCCCC2)CC3)cnc(N)c1C` (stereo not drawn) was 2.26%.
The compound `Clc1ccc(OCc2ccccc2)c(Cc2ccc(-c3nc4cnccc4[nH]3)o2)c1` displayed an IFI of 12.2%.
As to `c1cc(CN2CCN(c3ccncc3)CC2)cc(-c2ccc(-c3nc4ccccc4[nH]3)cc2)c1`, the IFI came to 13.9%.
The value for `CS(=O)(=O)Nc1cccc(-c2cnc3[nH]cc(-c4ccc(C(=O)O)c(F)c4)c3c2)c1` was 4.63%; that for `O=C(Nc1ccc(S(=O)(=O)N2CCCCC2)cc1)c1cc(-c2ccccc2O)n[nH]1` was 5.71%; that for `CS(=O)(=O)CCNc1nccc(N2CCc3ncnc(Nc4ccc(OCc5cccc(F)c5)c(Cl)c4)c3C2)n1` was 8.33%.
The value for `CCCOc1cc(OCCC)cc(-c2cc(=O)c3ccccc3[nH]2)c1` was 5.88%.
The value for `CC(=O)N1N=C(c2ccc(F)cc2)Sc2c1nc(-c1ccccc1)n2C(C)=O` was 4.29%; that for `COC(=O)c1cccc(CNCc2cccc(-c3cccc(-c4nc5cc(C(F)(F)F)ccc5[nH]4)c3)c2)c1` was 6.73%.
The compound `CCCCCc1cc(O)c2c(c1)OC(C)(C)C=C2C1=CCN(Cc2ccsc2)CC1` returned an IFI of 5.59%.
Regarding `CC1CCN(C(=O)CSc2nc(-c3ccc(C(C)C)cc3)no2)CC1`, the IFI stood at 9.76%.
The value for `CC[C@@H]([C@@H](CC(C)C)C(=O)N[C@@H](CCCCNC(=O)OCc1ccccc1)C(=O)Nc1ccccn1)N(O)C=O` was 2.9%; that for `C#CCN(Cc1cc2c(=O)[nH]c(N)nc2cc1C)c1ccc(C(=O)N[C@@H](CCC(=O)O)C(=O)O)cc1` was 0.75%.
Regarding `CC(NC(=O)NC1CCC(CCN2CCCc3ccccc32)CC1)c1cccc2ccccc12` (stereo not drawn), the IFI was found to be 5.88%.
The value for `O=S(=O)(Nc1ccc2nccc(N3CCNCC3)c2c1)c1ccc2oc3ccccc3c2c1` was 5.22%; that for `CCOc1ccc(-c2noc(-c3c[nH]c4ccccc4c3=O)n2)cc1` was 1.49%; that for `Clc1ccc(-c2csc3ncnc(Cl)c23)cc1` was 3.38%.
The value for `COc1cccc(C(=O)Nc2ccc(Nc3nc(C)cc(N(C)C)n3)cc2)c1OC` was 7.14%.
`CC(C)c1ccc(CN2CCC(CNC(=O)c3cc(-c4cccc(C(F)(F)F)c4)cs3)C2)cc1` (stereo not drawn) yielded an IFI of 12.2%.
The value for `O=C(/C=C/c1ccc(Cl)c(Cl)c1)N1CCC(CN2CCC(c3nc4ccccc4n3CCCO)CC2)CC1` was 0.75%; that for `Cc1cc(N)c2cc(NC(=O)/C=C/c3ccccc3)ccc2n1` was 3.45%.
Compound `O=C(/C=C/c1ccccc1Cl)Nc1ccc(Br)c(OCCN2CCC(O)(c3ccccc3)CC2)c1` showed an IFI of 7.64%.
The value for `O=c1cc(NCCCNC(c2ccccc2)c2ccc(Cl)c(Cl)c2)[nH]c2ccccc12` (stereo not drawn) was 5%.
Take `OC(CNCCCc1ccccc1)c1cc(OCc2ccccc2)cc(OCc2ccccc2)c1` (stereo not drawn): the IFI was 5.22%.
As to `CCOc1ccccc1N1CCN(CCCNC(=O)/C(=C/C=C/c2cc3cc(Cl)c(Cl)cc3[nH]2)OC)CC1`, the IFI came out at 10.8%.
Take `c1ccc2c(c1)ncn2-c1ccnc(Nc2ccncc2)n1`: the IFI was determined as 0.79%.
`O=S(=O)(c1ccccc1OC(F)(F)F)C1CC2CCC(C1)N2S(=O)(=O)c1cccc(C(F)(F)F)c1` (stereo not drawn): the IFI came to 3.33%.
The value for `CC(C)(C)CC(C)(C)c1ccc(O)c(CNC2CCCCC2)c1` was 8.96%; that for `Nc1cccc(CNCc2cccc(-c3cccc(-c4nc5ccccc5[nH]4)c3)c2)c1` was 8.49%; that for `COc1ccc2nccc([C@@H](O)CN3CCC(NC(=O)/C=C/c4cccc(NC(C)=O)c4)CC3)c2c1` was 1.48%.
For the compound `CCN(CC)CCn1c2ccccc2c2ccc(C(=O)Nc3ccc4sc(C)nc4c3)cc21`, the IFI amounted to 14.4%.
The value for `NC1CCN(Cc2ccc(-c3ccc(-c4nc5cc(F)ccc5[nH]4)cc3)cc2)C1` (stereo not drawn) was 7.04%; that for `Cc1ccccc1OCC(=O)Nc1ccc(-c2nc3cc4ccccc4cc3[nH]2)cc1` was 0.73%; that for `CN1CCC(NCc2cccc(-c3ccc(S(=O)(=O)NCCN4CCCC4)c(F)c3)c2)CC1` was -0%.
Consider `CCCn1c(Sc2ccc(C#N)c([N+](=O)[O-])c2)nnc1-c1ccc(OC)cc1`, for which the IFI is 4.23%.
For `COc1ccc2ccc(OC)c(CNCCCCCCNCc3c(OC)ccc4ccc(OC)cc34)c2c1`, the IFI was 12%.
The value for `O=C1Nc2ccc3ncccc3c2/C1=C/Nc1ccc(Cn2ccnc2)cc1` was 11.9%; that for `Nc1c2ccccc2nc2cc([N+](=O)[O-])ccc12` was 6.92%.
For the compound `COc1ccccc1C(=O)Nc1cccc(N2CCC(NCc3ccc(-n4cccn4)cc3)CC2)c1`, the IFI turned out to be 10.5%.
`O=C1C2C(c3ccc(Cl)c(Cl)c3)N3CC(OCc4ccccc4)CC3(C(=O)O)C2C(=O)N1c1ccc(Br)cc1` (stereo not drawn) registered an IFI of 0%.
`COc1ccc2ncc(C#N)c(CCN3CCC(NCc4ccc5c(c4)NC(=O)CO5)CC3)c2c1` displayed an IFI of 3.73%.
The value for `Nc1ncc(-c2cn[nH]c2)cc1-c1nc2cc(Cl)cnc2[nH]1` was -0%; that for `CCOC(=O)CC[C@@H](NC(=O)c1ccc(NCc2ccc3ccc4nc(C)[nH]c(=O)c4c3c2)cc1F)C(=O)N[C@@H](Cc1c[nH]c2ccccc12)C(=O)OCC` was 5.71%; that for `CCN1CCN(CCCCNc2c3ccccc3nc3ccccc23)CC1` was 4.29%.
The value for `Oc1ccc(CCNc2nc(NCc3ccccc3-c3ccc(C(F)(F)F)cc3)nc(NC3CCNCC3)n2)cc1` was 10.4%; that for `Fc1cccc(COc2ccc(Nc3ncnc4sc(C#CCNC5CCCC5)cc34)cc2Cl)c1` was 4.38%.
The value for `Cc1ccccc1C1CCN(C2CCC(NC(=O)/C=C/c3ccc4c(c3)OC(F)(F)O4)CC2)CC1` (stereo not drawn) was 17.2%; that for `O=C(NCc1ccccn1)C(c1cc2ccccc2o1)N1CCN(C(c2ccccc2)c2ccccc2)CC1` (stereo not drawn) was 0.69%; that for `O=S(=O)(NCCN1CCCC1)c1ccc(-c2ccc(CNCc3ccc(F)cc3)cc2)cc1F` was 7.48%.
The compound `CC1(C)NC(N)=NC(=N)N1OCCOc1ccc(Cc2ccccc2)cc1` had an IFI of 4.41%.
The value for `CC(C)C[C@H](NC(=O)c1ccc(OCCN2CCOCC2)cc1)C(=O)N[C@H](/C=N/N1CC(=O)NC1=O)CCc1ccccc1` was 1.83%; that for `COCCCNc1sc(S(=O)(=O)c2ccccc2)nc1S(=O)(=O)c1ccc(C)cc1` was 1.41%.
The value for `CCOC(=O)NC1=NC(C)(C)N(OCc2ccc(Cl)c(Cl)c2)C(NC(=O)OCC)=N1` was -0%; that for `O=C(Nc1ccc2c(ccn2C2CCCN(Cc3cc(F)cc(F)c3F)CC2)c1)c1ccco1` (stereo not drawn) was 6.25%.
The value for `CC(=O)N[C@H](C(=O)Nc1ccc(-c2ccc(-c3nc4cc(C(F)(F)F)ccc4[nH]3)s2)cc1)C(C)C` was 7.02%.
In the case of `COc1cccc(OC2CCN(C(=O)c3ccc(-c4ccc(N5CCCC5=O)cc4C)cc3)CC2)c1`, the IFI came to 10.7%.
`CC(C)c1ccc(-c2noc(SCC(=O)N3CCCCC3C)n2)cc1` (stereo not drawn) registered an IFI of 4.88%.
